{
  "source": "the supplement of paper PMC8728848",
  "assay_in_all_cases": "glycan array binding signal (z-score within array); higher = stronger binding",
  "settings_in_all_cases": "glycan notation: IUPAC condensed, linker removed; mutation: R120K",
  "key": {"[1]": {"target": "Gal3S(b1-3)[Fuc(a1-4)]GlcNAc", "method_in_brief": "(§1)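 From the Consortium for Functional Glycomics database, 3228 arrays were curated, keeping only those whose protein sequence was available. Binding is given as a within-array Z-score averaged across arrays sharing a protein sequence and across linkers. Negative Z-scores can be read as non-binding.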"}, "Gal3S(b1-4)Glc": {"target": "Gal3S(b1-4)Glc", "method_in_brief": "as §1"}, "Gal3S(b1-4)Glc6S": {"target": "Gal3S(b1-4)Glc6S", "method_in_brief": "as §1"}, "Gal3S(b1-4)GlcNAc": {"target": "Gal3S(b1-4)GlcNAc", "method_in_brief": "as §1"}, "[2]": {"target": "Gal3S(b1-4)[Fuc(a1-3)]Glc6S", "method_in_brief": "as §1"}, "[3]": {"target": "Gal3S(b1-4)[Fuc(a1-3)]GlcNAc", "method_in_brief": "as §1"}, "[4]": {"target": "Gal3S(b1-4)[Fuc(a1-3)]GlcNAc6S", "method_in_brief": "as §1"}, "Gal3S4S(b1-4)GlcNAc": {"target": "Gal3S4S(b1-4)GlcNAc", "method_in_brief": "as §1"}, "Gal3S6S(b1-4)GlcNAc": {"target": "Gal3S6S(b1-4)GlcNAc", "method_in_brief": "as §1"}, "Gal3S6S(b1-4)GlcNAc6S": {"target": "Gal3S6S(b1-4)GlcNAc6S", "method_in_brief": "as §1"}, "Gal4S(b1-4)GlcNAc": {"target": "Gal4S(b1-4)GlcNAc", "method_in_brief": "as §1"}, "Gal4S6S(b1-4)GlcNAc": {"target": "Gal4S6S(b1-4)GlcNAc", "method_in_brief": "as §1"}, "Gal6P(b1-4)GlcNAc": {"target": "Gal6P(b1-4)GlcNAc", "method_in_brief": "as §1"}, "Gal6S(b1-3)GlcNAc": {"target": "Gal6S(b1-3)GlcNAc", "method_in_brief": "as §1"}, "Gal6S(b1-3)GlcNAc6S": {"target": "Gal6S(b1-3)GlcNAc6S", "method_in_brief": "as §1"}, "Gal6S(b1-4)Glc": {"target": "Gal6S(b1-4)Glc", "method_in_brief": "as §1"}, "Gal6S(b1-4)Glc6S": {"target": "Gal6S(b1-4)Glc6S", "method_in_brief": "as §1"}, "Gal6S(b1-4)GlcNAc": {"target": "Gal6S(b1-4)GlcNAc", "method_in_brief": "as §1"}, "Gal6S(b1-4)GlcNAc6S": {"target": "Gal6S(b1-4)GlcNAc6S", "method_in_brief": "as §1"}, "GalNAc(a1-3)Gal": {"target": "GalNAc(a1-3)Gal", "method_in_brief": "as §1"}, "GalNAc(a1-3)GalNAc": {"target": "GalNAc(a1-3)GalNAc", "method_in_brief": "as §1"}, "[5]": {"target": "GalNAc(a1-3)GalNAc(b1-3)Gal(a1-4)Gal(b1-4)Glc", "method_in_brief": "as §1"}, "[6]": {"target": "GalNAc(a1-3)GalNAc(b1-3)Gal(a1-4)Gal(b1-4)GlcNAc", "method_in_brief": "as §1"}, "GalNAc(b1-3)Gal": {"target": "GalNAc(b1-3)Gal", "method_in_brief": "as §1"}, "[7]": {"target": "GalNAc(b1-3)Gal(a1-4)Gal(b1-4)GlcNAc", "method_in_brief": "as §1"}, "[8]": {"target": "GalNAc(b1-3)Gal(a1-4)Gal(b1-4)GlcNAc(b1-3)Gal(b1-4)Glc", "method_in_brief": "as §1"}, "[9]": {"target": "GalNAc(b1-3)Gal(a1-6)Gal(b1-4)Glc", "method_in_brief": "as §1"}, "GalNAc(b1-3)GalNAc": {"target": "GalNAc(b1-3)GalNAc", "method_in_brief": "as §1"}, "GalNAc(b1-3)GlcNAc": {"target": "GalNAc(b1-3)GlcNAc", "method_in_brief": "as §1"}, "GalNAc(b1-4)Gal(b1-4)Glc": {"target": "GalNAc(b1-4)Gal(b1-4)Glc", "method_in_brief": "as §1"}, "GalNAc(b1-4)GlcNAc": {"target": "GalNAc(b1-4)GlcNAc", "method_in_brief": "as §1"}, "[10]": {"target": "GalNAc(b1-4)GlcNAc(b1-2)Man", "method_in_brief": "as §1"}, "[11]": {"target": "GalNAc(b1-4)GlcNAc(b1-2)Man(a1-3)[GalNAc(b1-4)GlcNAc(b1-2)Man(a1-6)]Man(b1-4)GlcNAc(b1-4)GlcNAc", "method_in_brief": "as §1"}, "[12]": {"target": "GalNAc(b1-4)GlcNAc(b1-3)GalNAc(b1-4)GlcNAc", "method_in_brief": "as §1"}, "GalNAc(b1-4)GlcNAc6S": {"target": "GalNAc(b1-4)GlcNAc6S", "method_in_brief": "as §1"}, "GalNAc(b1-6)GalNAc": {"target": "GalNAc(b1-6)GalNAc", "method_in_brief": "as §1"}, "GalNAc3S(b1-4)GlcNAc": {"target": "GalNAc3S(b1-4)GlcNAc", "method_in_brief": "as §1"}},
  "note": "The list shows a part of the results.",
  "data": [
    {"binder": "Siglec-9 (Homo sapiens), Q9Y336 (protein) MLLLLLPLLWGRERAEGQTSKLLTMQSSVTVQEGLCVHVPCSFSYPSHGWIYPGPVVHGYWFREGANTDQDAPVATNNPARAVWEETRDRFHLLGDPHTKNCTLSIRDARRSDAGRYFFKMEKGSIKWNYKHHRLSVNVTALTHRPNILIPGTLESGCPQNLTCSVPWACEQGTPPMISWIGTSVSPLDPSTTRSSVLTLIPQPQDHGTSLTCQVTFPGASVTTNKTVHLNVSYPPQNLTMTVFQGDGTVSTVLGNGSSLSLPEGQSLRLVCAVDAVDSNPPARLSLSWRGLTLCPSQPSNPGVLELPWVHLRDAAEFTCRAQNPLGSQQVYLNVSLQSKATSGVTQGVVGGAGATALVFLSFCVIFVVVRSCRKKSARPAAGVGDTGIEDANAVRGSASQGPLTEPWAEDSPPDQPPPASARSSVGEGELQYASLSFQMVKPWDSRGQEATDTEYSEIKIHR", "values": [
      {"measurement": "glycan array binding signal (z-score)", "setting": "[1]", "result": -0.39},
      {"measurement": "glycan array binding signal (z-score)", "setting": "Gal3S(b1-4)Glc", "result": 0.244},
      {"measurement": "glycan array binding signal (z-score)", "setting": "Gal3S(b1-4)Glc6S", "result": 0.373},
      {"measurement": "glycan array binding signal (z-score)", "setting": "Gal3S(b1-4)GlcNAc", "result": -0.151},
      {"measurement": "glycan array binding signal (z-score)", "setting": "[2]", "result": 0.005},
      {"measurement": "glycan array binding signal (z-score)", "setting": "[3]", "result": 0.111},
      {"measurement": "glycan array binding signal (z-score)", "setting": "[4]", "result": 0.417},
      {"measurement": "glycan array binding signal (z-score)", "setting": "Gal3S4S(b1-4)GlcNAc", "result": -0.22},
      {"measurement": "glycan array binding signal (z-score)", "setting": "Gal3S6S(b1-4)GlcNAc", "result": 0.121},
      {"measurement": "glycan array binding signal (z-score)", "setting": "Gal3S6S(b1-4)GlcNAc6S", "result": 1.35},
      {"measurement": "glycan array binding signal (z-score)", "setting": "Gal4S(b1-4)GlcNAc", "result": -0.468},
      {"measurement": "glycan array binding signal (z-score)", "setting": "Gal4S6S(b1-4)GlcNAc", "result": 0.149},
      {"measurement": "glycan array binding signal (z-score)", "setting": "Gal6P(b1-4)GlcNAc", "result": 0.007},
      {"measurement": "glycan array binding signal (z-score)", "setting": "Gal6S(b1-3)GlcNAc", "result": -0.227},
      {"measurement": "glycan array binding signal (z-score)", "setting": "Gal6S(b1-3)GlcNAc6S", "result": 1.72},
      {"measurement": "glycan array binding signal (z-score)", "setting": "Gal6S(b1-4)Glc", "result": -0.159},
      {"measurement": "glycan array binding signal (z-score)", "setting": "Gal6S(b1-4)Glc6S", "result": 0.816},
      {"measurement": "glycan array binding signal (z-score)", "setting": "Gal6S(b1-4)GlcNAc", "result": -0.636},
      {"measurement": "glycan array binding signal (z-score)", "setting": "Gal6S(b1-4)GlcNAc6S", "result": 0.596},
      {"measurement": "glycan array binding signal (z-score)", "setting": "GalNAc(a1-3)Gal", "result": 0.045},
      {"measurement": "glycan array binding signal (z-score)", "setting": "GalNAc(a1-3)GalNAc", "result": -0.472},
      {"measurement": "glycan array binding signal (z-score)", "setting": "[5]", "result": -0.517},
      {"measurement": "glycan array binding signal (z-score)", "setting": "[6]", "result": -0.469},
      {"measurement": "glycan array binding signal (z-score)", "setting": "GalNAc(b1-3)Gal", "result": -0.291},
      {"measurement": "glycan array binding signal (z-score)", "setting": "[7]", "result": -0.172},
      {"measurement": "glycan array binding signal (z-score)", "setting": "[8]", "result": -0.064},
      {"measurement": "glycan array binding signal (z-score)", "setting": "[9]", "result": -0.354},
      {"measurement": "glycan array binding signal (z-score)", "setting": "GalNAc(b1-3)GalNAc", "result": -0.48},
      {"measurement": "glycan array binding signal (z-score)", "setting": "GalNAc(b1-3)GlcNAc", "result": -0.343},
      {"measurement": "glycan array binding signal (z-score)", "setting": "GalNAc(b1-4)Gal(b1-4)Glc", "result": 1.78},
      {"measurement": "glycan array binding signal (z-score)", "setting": "GalNAc(b1-4)GlcNAc", "result": -0.443},
      {"measurement": "glycan array binding signal (z-score)", "setting": "[10]", "result": -0.292},
      {"measurement": "glycan array binding signal (z-score)", "setting": "[11]", "result": -0.384},
      {"measurement": "glycan array binding signal (z-score)", "setting": "[12]", "result": -0.389},
      {"measurement": "glycan array binding signal (z-score)", "setting": "GalNAc(b1-4)GlcNAc6S", "result": -0.142},
      {"measurement": "glycan array binding signal (z-score)", "setting": "GalNAc(b1-6)GalNAc", "result": -0.358},
      {"measurement": "glycan array binding signal (z-score)", "setting": "GalNAc3S(b1-4)GlcNAc", "result": -0.59}
    ]}
  ]
}
